The record followed here is PMC9911399, “Two distinct binding modes provide the RNA-binding protein RbFox with extraordinary sequence specificity”.

Substitutions are numbered along the chain they refer to; changes in the protein carry UniProt numbers. Some of the results follow.

T1: RBFOX1 RRM RbFoxmut (Fox-RRM*) (Homo sapiens, UniProt Q9NWB1 109-208, R118D;E147R;N151S;E152T)
T1 sequence: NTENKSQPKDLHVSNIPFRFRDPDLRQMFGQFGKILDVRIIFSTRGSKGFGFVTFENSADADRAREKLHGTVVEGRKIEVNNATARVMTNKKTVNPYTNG

B1: UAAACCG (DNA:RNA)
RNA: GGGAGACCGGAAUUCAGAUUGUCCUAAACCGUUAAAUCCCGUCGUAGCCACCA
DNA 1: CAATCTGAATTCCGGTCTCCC
DNA 2: TGGTGGCTACGACGGGATT
B2: AUGUACA (DNA:RNA)
RNA: B1 RNA with U25A, A26U, A27G, A28U, C29A, G31A
DNA 1: CAATCTGAATTCCGGTCTCCC
DNA 2: TGGTGGCTACGACGGGATT
B3: GCGCCCA (DNA:RNA)
RNA: B1 RNA with U25G, A26C, A27G, A28C, G31A
DNA 1: CAATCTGAATTCCGGTCTCCC
DNA 2: TGGTGGCTACGACGGGATT
B4: GCAACAG (DNA:RNA)
RNA: B1 RNA with U25G, A26C, C30A
DNA 1: CAATCTGAATTCCGGTCTCCC
DNA 2: TGGTGGCTACGACGGGATT
B5: GAUUUGC (DNA:RNA)
RNA: B1 RNA with U25G, A27U, A28U, C29U, C30G, G31C
DNA 1: CAATCTGAATTCCGGTCTCCC
DNA 2: TGGTGGCTACGACGGGATT
B6: CGUCCUC (DNA:RNA)
RNA: B1 RNA with U25C, A26G, A27U, A28C, C30U, G31C
DNA 1: CAATCTGAATTCCGGTCTCCC
DNA 2: TGGTGGCTACGACGGGATT
B7: CCUAACU (DNA:RNA)
RNA: B1 RNA with U25C, A26C, A27U, C29A, G31U
DNA 1: CAATCTGAATTCCGGTCTCCC
DNA 2: TGGTGGCTACGACGGGATT
B8: ACCGCUA (DNA:RNA)
RNA: B1 RNA with U25A, A26C, A27C, A28G, C30U, G31A
DNA 1: CAATCTGAATTCCGGTCTCCC
DNA 2: TGGTGGCTACGACGGGATT
B9: UUAUGUA (DNA:RNA)
RNA: B1 RNA with A26U, A28U, C29G, C30U, G31A
DNA 1: CAATCTGAATTCCGGTCTCCC
DNA 2: TGGTGGCTACGACGGGATT

For this experiment, the target named is T1, RBFOX1 RRM RbFoxmut (Fox-RRM*). The experiment in a line: EMSA; HiTS-Eq, 1 nM pool, 10 min; buffer printed only for the single-RNA assays: 10 mM Tris pH 7.5, 150 mM NaCl, 3.4 mM EDTA, 0.001% NP-40, 30 C. Particulars: tags: His6 N-terminal (pET28a); label: 5' 32P. Put shortly: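 A pool of RNA with 7 randomized nucleotides, 5′-radiolabelled and with DNA-annealed flanks, was equilibrated at 1 nM for 10 min in 50 µL with purified RbFox RRM, wild type or mutant, across increasing protein concentrations. Free RNA was separated by 8% native PAGE, excised, reverse-transcribed, barcoded by PCR and sequenced. Relative association constants were obtained from read-count changes of each RNA species versus the control reaction and normalised to the cognate motif.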
(In general: A gel shift assay detects complexes by their altered migration in electrophoresis.)
Take B1: the binding signal is 0.0862 KA relative to UGCAUGU.

As for B2, the binding signal is 0.124 KA relative to UGCAUGU.

Turning to B3, the binding signal was 0.0736 KA relative to UGCAUGU.

For B4, the binding signal is 0.0871 KA relative to UGCAUGU.

With B5, the binding signal is 0.0946 KA relative to UGCAUGU.

As for B6, the binding signal was 0.0728 KA relative to UGCAUGU.

Take B7: the binding signal was 0.0895 KA relative to UGCAUGU.

As to B8, the binding signal was 0.0962 KA relative to UGCAUGU.

Turning to B9, the binding signal is 0.19 KA relative to UGCAUGU.
